54 molecules from ChEMBL document CHEMBL4888484, “Replenishing the malaria drug discovery pipeline: Screening and hit evaluation of the MMV Hit Generation Library 1 (HGL1) against asexual blood stage Plasmodium falciparum ,using a nano luciferase reporter read-out” (2022) can be followed below.

Screen size: about 150,000 compounds; about 540 (0.36%) showed an effect of 50% or more. The list shows a part of the results.

This assay has as its system Plasmodium falciparum. Put plainly: Primary screen in NF54 nanoGlo assay, in single point, at 2uM, 72h; a lower Z score goes with more inhibition. In kind it is functional, Erythrocyte. The following applies: timepoint 72 hour.
As a reminder, the % Inhibition is the change of the read-out against control, counted positive when it falls. On to `CC(C)c1noc(OCCS(=O)(=O)N(C)C)n1`, for which the “% Inhibition” value is reported as -4% and the Z score was determined as 0.54.

With `CCN1CCC[C@@H]1CNC(=O)c1c(COC)n(CCc2cccc(Cl)c2)c(C)cc1=O`, the “% Inhibition” value is -9% and the Z score amounted to 1.18.

Take `COc1cccc(O)c1S(=O)(=O)N1CC(NC2COC2)C1`: the “% Inhibition” value is reported as -4% and the Z score was 0.65.

As to `CC(C)NC(=NCc1ccsc1)N(C)C`, the “% Inhibition” value was -7% and the Z score is recorded as 1.14.

Turning to `CN(C(=O)OC(C)(C)C)[C@H]1CCCN(Cc2nnc(C3CC3)n2C)C1`, the “% Inhibition” value is given as -5% and the Z score amounted to 0.51.

As to `CC(=O)N1CCC(CNC(=O)c2cccc(OCCc3ccccc3)c2)CC1`, the “% Inhibition” value is 12% and the Z score is -1.68.

Take `COc1ccc(NC(=O)c2ccc(N(S(=O)(=O)c3ccc(Cl)cc3F)S(=O)(=O)c3ccc(Cl)cc3F)cc2)cc1`: the “% Inhibition” value is recorded as -10% and the Z score stood at 1.36.

On to `O=C(NCCN1CCc2c(Cl)cccc2C1)N[C@@H]1C=C[C@H](CO)C1`, for which the “% Inhibition” value is recorded as -12% and the Z score came to 1.63.

Turning to `Cc1cnc2c(cnn2Cc2nc([C@H]3CCO[C@@H]3C(C)(C)C)no2)c1`, the “% Inhibition” value was -9% and the Z score was 1.15.

Consider `CCN(CCN(C)C)C(=O)c1cccc(-c2ncccc2C)c1`, for which the “% Inhibition” value is -6% and the Z score worked out at 0.81.

`N#Cc1ccc(NC(=O)N2CCC([C@@H](O)CCc3ccccc3)CC2)c(F)c1`: the “% Inhibition” value was -5% and the Z score is given as 0.7.

Take `Cn1cnnc1CCC(=O)N1CCN(Cc2ccc3c(c2)OCO3)CC1`: the “% Inhibition” value is given as -9% and the Z score was determined as 0.89.

For the molecule `CN(Cc1nncn1C)C(=O)C[C@H]1CCCOC1`, the “% Inhibition” value was -2% and the Z score is reported as 0.42.

`Cc1ccc2c(c1)C(=O)N1CCCC3=NN(c4c(Cl)cc(Cl)cc4Cl)C(=N)C3=C1N2`: the “% Inhibition” value is -9% and the Z score was found to be 0.92.

In the case of `CS(=O)(=O)Cc1ccc(NCC[C@H]2CCCOC2)nc1`, the “% Inhibition” value was -5% and the Z score amounted to 0.78.

`Cc1ncoc1C(=O)N(C)Cc1csc(-c2ccccc2)n1`: the “% Inhibition” value worked out at 5% and the Z score is given as -0.79.

For the molecule `Cc1ccc(OCC2c3ccsc3CCN2C(=O)CN(CC2CCCO2)C(=O)c2cccc(Cl)c2)c(C)c1` (stereo not drawn), the “% Inhibition” value was -10% and the Z score was 1.36.

In the case of `CO[C@]12CCC[C@@]1(NCc1cnc3onc(C)c3c1)CCO2`, the “% Inhibition” value is on record as 0% and the Z score was -0.01.

As to `O=C(CC1CC2CCC1C2)Nc1nccs1` (stereo not drawn), the “% Inhibition” value is listed as 16% and the Z score is given as -1.91.

On to `CC(C)c1ncc(NC(=O)c2cccc3cc[nH]c23)cn1`, for which the “% Inhibition” value is listed as -1% and the Z score is reported as 0.27.

With `CC(C)O[C@H]1CN(C(=O)c2cc(Cl)cn2C)C[C@@H]1O`, the “% Inhibition” value is recorded as -1% and the Z score amounted to 0.14.

On to `Cc1cc(C)c(NC(=O)[C@H]2CCCN(S(=O)(=O)Cc3cccc(Cl)c3)C2)c(C)c1`, for which the “% Inhibition” value was found to be 7% and the Z score was -0.95.

For the molecule `Cc1noc(C2CCN(C(=O)c3nccnc3C)CC2)n1`, the “% Inhibition” value worked out at 5% and the Z score is -0.85.

As for `CCOc1ccccc1NC(=O)N1CC[C@H](Cn2c(C)cnc2C2CCC2)C1`, the “% Inhibition” value is listed as -10% and the Z score is recorded as 1.36.

Take `CN(C)C(=O)c1noc2c1CN(C(=O)[C@@H]1COc3ccccc3C1)CC2`: the “% Inhibition” value is -9% and the Z score came to 1.13.

With `CC(=O)N1CCC(Cc2ccc(CN(Cc3ccc(C#N)cc3)C3CC3)cc2)CC1`, the “% Inhibition” value is given as -11% and the Z score is given as 2.21.

With `O=S(=O)(c1cccc(-c2nc3c4ccccc4nc(O)n3n2)c1)N1CCCC1`, the “% Inhibition” value is -10% and the Z score was 0.93.

Regarding `Cc1oncc1C(=O)NCc1ccsc1`, the “% Inhibition” value is given as -3% and the Z score was determined as 0.63.

Take `CCNC(=O)CN(CC)c1nc(C2CC2)ns1`: the “% Inhibition” value is recorded as -7% and the Z score is listed as 1.28.

With `O=C([C@H]1CC(=O)N(c2ccccc2)C1)N1CCCC1`, the “% Inhibition” value was -1% and the Z score was 0.12.

For the molecule `Cc1nn(C)c(C)c1OCC1(CS(C)(=O)=O)CC1`, the “% Inhibition” value was -1% and the Z score is listed as 0.22.

Regarding `COc1ccccc1CNC(=O)CC(C)=O`, the “% Inhibition” value is listed as 1% and the Z score is given as -0.29.

With `CCc1nc(CN(CC(C)C)C(=O)C(C)C)[nH]c(=O)c1Cc1ccc(OC)cc1`, the “% Inhibition” value is given as -7% and the Z score is listed as 1.23.

Turning to `O=C(COc1ccc2c(c1)C(=O)CC2)NCc1ccccn1`, the “% Inhibition” value stood at 5% and the Z score was -0.64.

With `O=C(NCCc1ccccc1)N1CCC[C@@](F)(C(=O)N2CCOCC2)C1`, the “% Inhibition” value is recorded as -17% and the Z score is on record as 1.54.

In the case of `Cc1cccc(OCC(=O)N(Cc2cccc(Br)c2)[C@H]2CCS(=O)(=O)C2)c1`, the “% Inhibition” value was found to be 0% and the Z score was -0.02.

In the case of `Cc1ccc(CNC(=O)NCC(=O)N2CCOCC3(CC3)C2)cc1`, the “% Inhibition” value was -6% and the Z score is 0.74.

As for `CCOC(=O)c1cn(C)nc1NS(=O)(=O)c1ccc(C)nc1`, the “% Inhibition” value was -18% and the Z score was 3.38.

Take `CC(C)NC(=O)c1coc(CN(Cc2ccc(F)cc2)Cc2ccc(C(C)C)cc2)n1`: the “% Inhibition” value is 5% and the Z score is on record as -0.76.

Regarding `COCCc1nnc2n1CC1CCC(C2)N1C(=O)c1ccc(C(C)C)cc1` (stereo not drawn), the “% Inhibition” value is 1% and the Z score is recorded as -0.25.

On to `Cc1cc(C(=O)Nc2nc3ccc(F)cn3n2)cc(O)n1`, for which the “% Inhibition” value is given as -7% and the Z score is reported as 0.96.

For `O=C(Nc1nnc(C2CC2)s1)N1CCC(CN2CCCC2)CC1`, the “% Inhibition” value is recorded as -7% and the Z score is listed as 0.71.

`C[C@@H](CNC(=O)CCCn1ccnc1)Oc1ccccc1`: the “% Inhibition” value is listed as -13% and the Z score was found to be 1.58.

As to `CN(C)C(=O)N(CCN1CCCCC1)[C@H]1CCN(C(=O)NCc2ccccc2)C1`, the “% Inhibition” value is -7% and the Z score turned out to be 0.83.

Consider `O=C(NCC1(OCCO)CCCC1)Nc1cccs1`, for which the “% Inhibition” value is given as -11% and the Z score was 1.23.

On to `O=C(O)C1CCCN1C(=O)C1CC1c1ccccc1C(F)(F)F` (stereo not drawn), for which the “% Inhibition” value is given as -5% and the Z score is on record as 0.52.

As for `Cc1nn(C)c(C)c1NC(=O)CN1C(=O)COc2ccc(Cl)cc21`, the “% Inhibition” value is given as -1% and the Z score was 0.15.

With `O=C(NC[C@H]1CCC(=O)N(Cc2ccccc2)CC1)c1ccoc1`, the “% Inhibition” value amounted to 28% and the Z score is -3.8.

`O=C(CCCNC(=O)Nc1ccncc1F)NC1CC1`: the “% Inhibition” value was -4% and the Z score was determined as 0.51.

As for `Cc1cc(N(C)C)nc(N2CCO[C@@H](CN(C)C)C2)n1`, the “% Inhibition” value is on record as -6% and the Z score is 0.71.

As for `Oc1ccccc1C1=NC(CN2CCCCC2)C(=S)C1c1ccccc1` (stereo not drawn), the “% Inhibition” value was -9% and the Z score worked out at 1.1.

Turning to `Cc1nc(CN2CCN(C(=O)c3ccc(C)n3C)CC2)n[nH]1`, the “% Inhibition” value was determined as 3% and the Z score is on record as -0.46.

For the molecule `CCC(=O)N(C)c1nc2ccccc2n(CC(=O)Nc2cccc3ccccc23)c1=O`, the “% Inhibition” value is on record as -1% and the Z score was determined as 0.13.

Turning to `Cc1ccc([C@H]2c3cc(OCC(=O)NC(C)C)ccc3CCN2C(=O)C2CCCC2)cc1`, the “% Inhibition” value is -4% and the Z score was found to be 0.59.
